Over roughly 33,000 sequences, “E-score (-0.5 to 0.5)” has its median near -0.041; the highest 2% begin near 0.37. The list shows a part of the results.
Target: T1, Ecm22 (UniProt Q05958)
T1 sequence: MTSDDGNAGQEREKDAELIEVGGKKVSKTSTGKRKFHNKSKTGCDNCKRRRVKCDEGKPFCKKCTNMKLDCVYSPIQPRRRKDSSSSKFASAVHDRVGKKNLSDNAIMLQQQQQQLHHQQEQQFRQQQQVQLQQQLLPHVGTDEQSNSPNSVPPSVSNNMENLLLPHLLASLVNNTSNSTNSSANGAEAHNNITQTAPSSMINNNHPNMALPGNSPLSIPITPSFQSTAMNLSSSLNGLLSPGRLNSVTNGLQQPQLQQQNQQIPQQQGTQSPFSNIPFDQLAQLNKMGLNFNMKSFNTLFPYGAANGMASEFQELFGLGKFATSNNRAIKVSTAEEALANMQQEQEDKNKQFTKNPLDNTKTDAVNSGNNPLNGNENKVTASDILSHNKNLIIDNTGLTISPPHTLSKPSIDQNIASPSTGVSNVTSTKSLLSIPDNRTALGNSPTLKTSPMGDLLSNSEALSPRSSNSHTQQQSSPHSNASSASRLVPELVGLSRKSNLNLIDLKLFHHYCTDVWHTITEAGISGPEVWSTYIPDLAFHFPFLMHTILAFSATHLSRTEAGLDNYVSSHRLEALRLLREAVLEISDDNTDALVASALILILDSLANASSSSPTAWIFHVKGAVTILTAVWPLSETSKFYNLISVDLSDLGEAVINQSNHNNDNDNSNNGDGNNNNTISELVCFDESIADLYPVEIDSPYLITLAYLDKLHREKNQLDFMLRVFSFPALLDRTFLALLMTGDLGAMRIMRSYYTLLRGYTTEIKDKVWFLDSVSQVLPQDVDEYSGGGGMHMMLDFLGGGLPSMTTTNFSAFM
Test: PBM E-score (8-mer binding enrichment) (E-score (-0.5 to 0.5)); higher = stronger / more preferred TF binding; most listed sequences are background and not binding sites
Settings: protein concentration: 200 nM; construct: GST-full length
Description: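 Universal 'all 10-mer' protein binding microarrays (Agilent AMADID 015681) probed with GST-tagged S. cerevisiae TFs (full-length or DBD) made by in vitro transcription/translation (PURExpress), about 100-200 nM. Bound TF was detected with fluorescent anti-GST. Each ungapped 8-mer (which stands for itself and its reverse complement) is scored by the PBM enrichment score (E-score), a modified Wilcoxon-Mann-Whitney statistic from -0.5 to +0.5, computed with the Universal PBM Analysis Suite. Scale: above 0.35 generally sequence-specific binding.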

| Sequence | PBM E-score |
| --- | --- |
| AGTGCACT | -0.204 |
| ACTGAACT | 0.0276 |
| AGGCTGCA | -0.173 |
| GACCTATA | 0.232 |
| ATTAGGCA | -0.0941 |
| CGAGACGA | 0.265 |
| GGCGCCCC | -0.193 |
| AGGAATAT | 0.06 |
| AAACCGGC | 0.0357 |
| GCTTGCAC | -0.0076 |
| CCTATCAC | -0.207 |
| TACAGGTA | 0.242 |
| CTGTCTCC | -0.0908 |
| ACGCTCCT | 0.0309 |
| AAATCACT | 0.00461 |
| TGCTGAAA | -0.244 |
| AGCGCATC | 0.0904 |
| CATCGCGG | 0.0538 |
| ATGCCATG | 0.0746 |
| GACGGCGC | 0.0716 |
| AACTAGAT | -0.155 |
| AGCGCAAA | 0.0539 |
| GAACATCC | 0.0795 |
| CCCATACC | -0.057 |

| Sequence | PBM E-score |
| --- | --- |
| CACGCGTA | 0.133 |
| AATGCTGC | 0.0546 |
| CTGTACCA | -0.152 |
| ACGAAGCC | 0.332 |
| GACCACGA | 0.036 |
| ATGACGTG | -0.166 |
| TCTATGCA | -0.148 |
| ACACTAAG | 0.0219 |
| GTGCTAGA | -0.338 |
| GGAAAAAC | 0.0925 |
| GGCATTCA | -0.0839 |
| GCAGTGAC | -0.273 |
| CAAGGGGG | -0.172 |
| CCGTACAC | 0.33 |
| ATCTGGAA | -0.169 |
| GCCACGCA | -0.0669 |
| AAGTGTGA | -0.288 |
| CGTCCTAC | -0.256 |
| TCCTTACA | -0.212 |
| AGTTACAA | -0.00606 |
| ATAGTAAT | 0.124 |
| AGACCAGG | -0.177 |
| CGCATCAC | -0.0396 |
| ATACGTTG | 0.216 |

| Sequence | PBM E-score |
| --- | --- |
| TCCGGCCA | -0.0746 |
| ATCTCGCC | 0.0128 |
| TACTTATA | 0.0873 |
| AAAGATCT | -0.0673 |
| TAATTTGA | -0.0645 |
| CATGTCGA | -0.123 |
| AAACCTTT | -0.148 |
| CCAGTTCC | 0.0619 |
| TATAGCCA | 0.15 |
| CGGCAGTC | 0.114 |
| CGGCGGCA | 0.015 |
| CTTTGAAA | 0.0595 |
| TCAGTCCA | -0.28 |
| GCTGTCCA | -0.159 |
| AACCAATT | -0.233 |
| AAGCTAGT | -0.186 |
| CGTCAAAC | 0.148 |
| AACCGCTA | -0.0392 |
| ATCAATAA | 0.0621 |
| CGCTGCGC | -0.00429 |
| AAGTCGAA | -0.148 |
| TAGGCGAA | 0.108 |
| AGGACCTA | -0.0144 |
| CAGGGCGG | -0.072 |

| Sequence | PBM E-score |
| --- | --- |
| AACAACGA | 0.283 |
| AGGTCACA | -0.288 |
| GCGGTCAC | -0.122 |
| AATGACAA | -0.0983 |
| AACTTCTA | -0.0506 |
| ACAGAGAG | -0.198 |
| AGCGTCGG | 0.154 |
| TAATACCA | 0.0168 |
| CCAGTTTA | -0.038 |
| CGCAGGCG | -0.169 |
| ACGAGACC | 0.33 |
| CCTCGTAA | 0.446 |
| AGCGATAG | 0.0441 |
| CCATGTTA | -0.172 |
| AGGTGTGA | -0.28 |
| AGAGACGG | -0.0903 |
| ATAGCAAC | -0.09 |
| AAGAGGGA | 0.0565 |
| TCGCCGCA | -0.0806 |
| CGACGCAA | 0.185 |
| ACTAGTGG | -0.231 |
| AGTCTGTC | -0.163 |

Source: the supplement of paper PMC3334620
